{"source": "paper PMC10726135", "note": "The other results are listed elsewhere or left out. At the low end of the ranking the order means little. The protein was read in a cell extract, so binding may be indirect."}
{"target": "T1, HNF4alpha2 (COS-7 nuclear extract) (UniProt P41235)", "T1 sequence": "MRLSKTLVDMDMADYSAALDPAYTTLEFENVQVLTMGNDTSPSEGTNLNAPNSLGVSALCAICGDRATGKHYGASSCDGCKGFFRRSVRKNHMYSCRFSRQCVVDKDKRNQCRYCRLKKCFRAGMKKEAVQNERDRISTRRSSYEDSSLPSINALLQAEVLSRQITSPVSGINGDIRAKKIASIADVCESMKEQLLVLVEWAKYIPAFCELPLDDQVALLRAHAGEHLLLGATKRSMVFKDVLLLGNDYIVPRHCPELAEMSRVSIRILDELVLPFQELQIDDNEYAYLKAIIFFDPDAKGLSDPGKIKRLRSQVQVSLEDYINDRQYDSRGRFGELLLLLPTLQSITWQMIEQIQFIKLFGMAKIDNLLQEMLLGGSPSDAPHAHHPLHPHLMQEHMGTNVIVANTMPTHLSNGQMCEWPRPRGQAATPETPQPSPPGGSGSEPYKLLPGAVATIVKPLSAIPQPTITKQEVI", "experiment": "protein-binding microarray", "details": "COS-7 nuclear extract on double-stranded Agilent 4x180k PBM; binding buffer, salt, pH and temperature not given; high values mean tight binding; double strand, one strand shown; sequences stand for … in …GCCTAGGGAGATTAGAGTATCGGTCGA"}
{"sequence": "TCAATAAATCACACGAAACAAGTAGCAGTT", "binding signal (log2 normalized intensity)": -1.03}
{"sequence": "AATTGAGATGAGATGGTCAAAGGTTGATGG", "binding signal (log2 normalized intensity)": 3.56}
{"sequence": "GTTATCTGATCAAATTCCACACCCCCCACT", "binding signal (log2 normalized intensity)": 5.45}
{"sequence": "CAGGGTCAATGTCCCCTTAGGAATAGTATC", "binding signal (log2 normalized intensity)": 2.14}
{"sequence": "GGACAGCCTTTTTCAAGCAATGTTTGCCTC", "binding signal (log2 normalized intensity)": -1.11}
{"sequence": "GCCTCCCGGAGAGGCCCCGCCCCGTCCCCG", "binding signal (log2 normalized intensity)": 6.14}
{"sequence": "AGCAGGCACCCCGGGAGCGCCGAGCACGTC", "binding signal (log2 normalized intensity)": -1.21}
{"sequence": "AACTTTGGACTTTTATGTTAAGATCAAACA", "binding signal (log2 normalized intensity)": 1.97}
{"sequence": "AGTCACTATCACCTCTCCCACCTGAATTAT", "binding signal (log2 normalized intensity)": 2.73}
{"sequence": "CATTATAAGTTGTCCTAGGAAGCAACAGAC", "binding signal (log2 normalized intensity)": 0.752}
{"sequence": "ACAGCTAGCAGGTGACAAATCCAGGATCAA", "binding signal (log2 normalized intensity)": -1.01}
{"sequence": "TGTAATAAGGAGTTGTGTGATAAGGAGGGC", "binding signal (log2 normalized intensity)": 0.534}
{"sequence": "GGGGGGACGCGCTTGGGCGACGGACGCGCC", "binding signal (log2 normalized intensity)": -1.11}
{"sequence": "ACAATTCTTCCTTCATCTGGAGACAAATGC", "binding signal (log2 normalized intensity)": 1.11}
{"sequence": "CTGCAGCGCCACATTCTGAGCCAGCACTTC", "binding signal (log2 normalized intensity)": -1.1}
{"sequence": "TAACTTACAGTGCACTTTGACCGCTCATTT", "binding signal (log2 normalized intensity)": 5.83}
{"sequence": "GCCAAGGAAGCGATGGGCTGGCCCTGAGCC", "binding signal (log2 normalized intensity)": -1.1}
{"sequence": "AGGAAACAAGGGTACCAACAGGTCCAAGGT", "binding signal (log2 normalized intensity)": -0.365}
{"sequence": "TGCAATTTGTTCTTTCTCCAACTGCTCCTC", "binding signal (log2 normalized intensity)": 0.946}
{"sequence": "AATTCTCATGGAGGACTTTGGCCTTTTGTG", "binding signal (log2 normalized intensity)": 5.77}
{"sequence": "CCTAAACAGTTACCGAGAGGTAACTCCCCC", "binding signal (log2 normalized intensity)": 2.86}
{"sequence": "ACACATGCCCCTTCCCTCCCTGCAATGGCC", "binding signal (log2 normalized intensity)": 4.02}
{"sequence": "TCCTCTTCAACTGATTCTTGCTTCGCTCTC", "binding signal (log2 normalized intensity)": -0.909}
{"sequence": "TTAAATCCTATCCTAGGGTTAAAGTCTACA", "binding signal (log2 normalized intensity)": 4.31}
{"sequence": "CCACCAGCTGCTTCGGCCAGCACAGGAGGC", "binding signal (log2 normalized intensity)": -1.23}
{"sequence": "CTTAGACAACACACCACCTGCTACTCCCTT", "binding signal (log2 normalized intensity)": -1.14}
{"sequence": "GAACCGTTAGCAACCGGAAGTGGCTAGAGG", "binding signal (log2 normalized intensity)": -1.27}
{"sequence": "AGGTCAAGCAATGCTGGGGACCTTTGGCCT", "binding signal (log2 normalized intensity)": 6}
{"sequence": "TCTACCTGACCTCCCAAAATTCTTCACATA", "binding signal (log2 normalized intensity)": -0.0778}
{"sequence": "GGGTCAATTAGCTTGAGCGAGACAGCGGGT", "binding signal (log2 normalized intensity)": -0.42}
{"sequence": "CCCTTGCTCTGTTTTCTGACGCAACAGAAA", "binding signal (log2 normalized intensity)": 0.154}
{"sequence": "GGCATCAGCCCCAATGGCTAAGGTCACCAT", "binding signal (log2 normalized intensity)": 2.73}
{"sequence": "CCCCAGTTCCCTGGGTCGCCAAGCCGGAGG", "binding signal (log2 normalized intensity)": -1.11}
{"sequence": "GAGGCCTAGGCAGTCCACAGACAAAGGCCC", "binding signal (log2 normalized intensity)": -1.03}
{"sequence": "TAAACCAACTATAGAAAGCCTTTGAACTGT", "binding signal (log2 normalized intensity)": 2.14}
{"sequence": "TTATCTCTGTAAAAGCCAGCATTTCTGTGG", "binding signal (log2 normalized intensity)": 1.32}
{"sequence": "ATGAGGATACTGATAACATGAGGTAGAGGG", "binding signal (log2 normalized intensity)": -0.983}
{"sequence": "AGATGCCGTCGGCACACACGCATGGCCGGC", "binding signal (log2 normalized intensity)": -1.17}
{"sequence": "CGCCCCCAACGGGCCACGCCCTGCACCCTA", "binding signal (log2 normalized intensity)": 3.97}
{"sequence": "ATGTTGTCCCTGCCCTTTGTCCAGGGTGAG", "binding signal (log2 normalized intensity)": 2.9}
{"sequence": "GGGCCTCTGAGATAAGGGTTCAAACTCAGT", "binding signal (log2 normalized intensity)": 1.31}
{"sequence": "TTTCTAAGGACACAACAGAATGTGACTGCC", "binding signal (log2 normalized intensity)": -0.313}
{"sequence": "CATCCAAGGACTTTGTAATCATATTGATAA", "binding signal (log2 normalized intensity)": 2.01}
{"sequence": "GTGCAGTTTTTCTGCCGAAGATATTTAACC", "binding signal (log2 normalized intensity)": 0.0759}
{"sequence": "AATTCCAAAGTTCAAGTAGAGCTTCACCTC", "binding signal (log2 normalized intensity)": 3.01}
{"sequence": "GCTCATCCATTTTCCTCTGAAAATCATTCA", "binding signal (log2 normalized intensity)": -1.13}
{"sequence": "TTTGTCTTAGGGGGTCTGGTTTCTAGGTAG", "binding signal (log2 normalized intensity)": 1.34}
{"sequence": "GAGGGCTCTGTCTGCTGGGCCTTCAGCTTG", "binding signal (log2 normalized intensity)": -1.02}
{"sequence": "GGGCAAATCTGAGGTCAAAGCTGTCAGAGA", "binding signal (log2 normalized intensity)": -0.198}
{"sequence": "GGCAGACAGGTTGGAGACGCAGAGAAGCAC", "binding signal (log2 normalized intensity)": -1.06}
{"sequence": "AGCTGACAGATGGTGACCAGACTACCTCTT", "binding signal (log2 normalized intensity)": -0.921}
{"sequence": "TCATCGCACCGGCAGGGGAGAACTTCCTCC", "binding signal (log2 normalized intensity)": -0.988}
{"sequence": "TTCCTCCCTCCCTCTTCCCTCATATAATTT", "binding signal (log2 normalized intensity)": 2.52}
{"sequence": "TACTTACAGACTTTCAACATTATGAAATCT", "binding signal (log2 normalized intensity)": -1.14}
{"sequence": "ACAAAAGAAAATGTGCCCTTTGGACAGAAA", "binding signal (log2 normalized intensity)": 5.13}
{"sequence": "GCCACCCTCTGGCCACCAGTTATTCATGTC", "binding signal (log2 normalized intensity)": 1.1}
{"sequence": "GATAATATAGTCACTATACAACTAGGCTAC", "binding signal (log2 normalized intensity)": -1.09}
{"sequence": "TCAGTTTTGCCATCAGCTCCCTCCCCTGGT", "binding signal (log2 normalized intensity)": 3.53}
{"sequence": "AATAGCCCCAAATTCCTTTCAAACTGTATT", "binding signal (log2 normalized intensity)": 1.63}
{"sequence": "CATTTGCCATTTCTGAGCAAATATTTGGGG", "binding signal (log2 normalized intensity)": 1.24}
{"sequence": "CAGTTAAGCAGGTTCACATTTTTGTCATCT", "binding signal (log2 normalized intensity)": 0.953}
{"sequence": "GGAGGGCGGGGAGTCTCCTGGGTAATCACC", "binding signal (log2 normalized intensity)": -1.08}
{"sequence": "AGGTAAAGGCATGCTTGGCATCCCTGTGGT", "binding signal (log2 normalized intensity)": -0.719}
{"sequence": "TCAGGCACAGCTCGACCTTTGACCTTCGGC", "binding signal (log2 normalized intensity)": 10.2}
{"sequence": "CCATGCCATGCATTTCAGAATTTTGCTCTG", "binding signal (log2 normalized intensity)": -0.519}
{"sequence": "GAACCAAGATATGCTAACATCCCTTGCAGA", "binding signal (log2 normalized intensity)": -1.18}
{"sequence": "ACCTTCCAGACAGAGAGGTCAGCAAATGTG", "binding signal (log2 normalized intensity)": 1.07}
{"sequence": "GAACGCTTGTGATTACACTGGGCTCACCTG", "binding signal (log2 normalized intensity)": -0.974}
{"sequence": "GGACTAAATTCTGCGGCGGAAGGACACAGA", "binding signal (log2 normalized intensity)": -1.04}
{"sequence": "ACAGTTACCGAGAGGTAACTCCCCCTTCAT", "binding signal (log2 normalized intensity)": 2.84}
{"sequence": "GGGAATCAGTCCATAAATACACAATCTGAA", "binding signal (log2 normalized intensity)": -0.859}
{"sequence": "GCTGAAGTTCCCAGCCCTTCACCAGAGCCG", "binding signal (log2 normalized intensity)": -0.479}
